Experimental data reported in patent US5770563A, “Heparin- and sulfatide binding peptides from the type I repeats of human thrombospondin and conjugates thereof” (The United States of America as represented by the …, priority 1995, dated 1998).
At least one peptide structure holds a part that was inferred or is arguable (an end, a ring closure or a residue). Square brackets hold non-standard residues; d marks the D form. Peptide text beside a SMILES is read from it. Ava = NCCCCC(=O)O; Mpa = O=C(O)CCS

How the values were obtained:
[1] = test system: laminin binding to heparin; assay: Inhibition of 125I-laminin binding to heparin-BSA; parameters: species or system mouse; settings: free peptide
Protocol: (§1) The peptides were tested as inhibitors of laminin, thrombospondin or apolipoprotein E binding to a heparin-bovine serum albumen conjugate or to a sulfatide in a solid phase assay essentially following the procedure described in Zabrenetzky et al., Cancer Res., Vol. 50, pages 5937-5942 (1990). Sulfatide (0.2 μg/well for thrombospondin binding, 0.6 μg/well for laminin binding) was immobilized in a mixture of 50 ng of phosphatidyl choline, and 30 ng of cholesterol on polyvinyl chloride microtiter plates. Heparin-BSA (0.2 μg/well) was absorbed onto polyvinyl chloride microtiter plate wells by incubation of 50 μl of Dulbecco's PBS for 2 h at 37°. The wells were emptied and filled with 50 mM tris, pH 7.8 containing 150 mM NaCl, 1 mM CaCl2, 0.025% NaN3, and 1% BSA. After 30 minutes, the wells were emptied and 30 μl of various concentrations of potential inhibitory peptides diluted in the same buffer or buffer alone and 30 μl of ^125 I-labeled laminin, thrombospondin or apolipoprotein E (0.2 μg/ml) were added to each well. After 3 hours at 4°, the wells were washed 6 times with 0.15M NaCl, cut from the plate and the bound radioactivity counted. FIGS. 1A-B and 2A-B show the level of thrombospondin binding to sulfatide and heparin-BSA, respectively, in the presence of increasing concetrations of the peptides listed. FIGS. 3 and 4A-B show the level of laminin binding to sulfatide and heparin-BSA, respectively, in the presence of increasing concentrations of the listed peptides.

[2] = biological target: basic fibroblast growth factor (FGF-2) binding to heparin; assay: Inhibition of 125I-bFGF binding to heparin-BSA conjugate; settings: retro-inverso peptides; read-out: IC50 for Inhibition of Binding
Protocol: Binding of ^125 I-bFGF to heparin was determined using an immobilized heparin-BSA conjugate as previously described (Guo, et al. (1992) Proc. Nat'l Acad. Sci. 89:3040-3044). ^125 I-bFGF, prepared as described by Neufeld, et al, (1985), J. Biol. Chem. 260:13860-13868, was added described above, and incubated for 2 hours at 25° C. Bound radioactivity was determined after washing and cutting the wells from the plate. FIGS. 40A, B and C show the inhibition of ^125 I-bFGF binding to heparin by a number of TSP peptide analogs.

bovine endothelial cells = assay: Inhibition of bovine endothelial cell proliferation (Table 7); assay type: cell-based; settings: free peptide; read-out: IC50 Inhibitory Activity, Free Peptide
Protocol: Similar structure-function and epitope mapping studies were carried out with regard to inhibition of bovine endothelial cell proliferation. […] This may be due either to a lower tendency of the conjugates to stick to the microtiter wells or a greater tendency to disrupt binding of the cells to the substratum in the wells.
Endothelial cell proliferation was measured using the CELL TITER 96™ assay (Promega, Madison, Wis.). 5×10^3 cells were plated into each well of a 96-well culture plate in 0.5 or 5% FCS-containing medium together with the indicated concentrations of growth effectors. After 72 h, 15 μl of dye solution was added to each well, and the plates were incubated for an additional 4 h. Solubilization solution was added, and absorbance at 570 nm was determined after 24 h as described by the manufacturer.

[3] = biological target: thrombospondin binding to heparin; assay: Inhibition of 125I-thrombospondin binding to immobilized heparin-BSA; parameters: species or system human; settings: for IC50: retro-inverso peptides, free, read-out: IC50 Inhibitory Activity, Free Peptide
Protocol: as §1
Microtiter plate wells were coated with heparin-BSA. Heparin-BSA (0.2 μg/well) was adsorbed by incubation in 50 μl of Dulbecco's PBS for 2 h at 370. The wells were emptied, filled with tris-BSA, and incubated for 30 to 60 minutes. The buffer was removed, and labelled thrombospondin was added and incubated in the wells for 3 h at 40. The wells were emptied and washed 4 times with saline. The bottoms of the wells were cut from the plate and counted to quantify thrombospondin binding. Inhibition of thrombospondin binding was determined using peptides diluted in 30 μl of 50 mM tris buffer, pH 7.8, containing 110 mM NaCl, 1 mM CaCl2, 0.025% NaN3, and 1% BSA or buffer alone and 30 μl of ^125 I-labeled TSP (0.2 μg/ml).

**Q.** Which “inhibition of laminin binding, in words” value [1] does the source give for `N[C@@H](CO)C(=O)N[C@@H](Cc1c[nH]cn1)C(=O)N[C@@H](Cc1c[nH]c2ccccc12)C(=O)N[C@@H](CO)C(=O)N[C@@H](Cc1c[nH]c2ccccc12)C(=O)N[C@@H](CO)C(=O)N[C@@H](CO)C(=O)O` [Peptide 258, SHWSWSS] (H-SHWSWSS-OH) here?
**A.** active only for inhibiting laminin binding

**Q.** Which results are given for `C[C@@H](NC(=O)CCS)C(=O)N[C@H](C)C(=O)N[C@H](Cc1c[nH]c2ccccc12)C(=O)N1CCC[C@@H]1C(=O)N[C@H](CO)C(=O)N[C@H](Cc1c[nH]c2ccccc12)C(=O)NCCCCC(=O)N[C@H](C)C(=O)N[C@H](CCC(N)=O)C(=O)N[C@H](CCCCN)C(=O)N[C@H](C)C(=O)N[C@H](CCCNC(=N)N)C(=O)N[C@H](CCCCN)C(N)=O` [Peptide 515, ri-amKRAKQAUWSPWAAtp] ([Mpa][dA][dA][dW][dP][dS][dW][Ava][dA][dQ][dK][dA][dR][dK]-NH2)?
**A.** IC50 [2]: 380 nM; IC50 (bovine endothelial cells): 15000 nM; IC50 [3]: 5 nM

**Q.** Which results are given for `C[C@@H](NC(=O)CCS)C(=O)N[C@H](C)C(=O)N[C@H](CO)C(=O)N[C@H](Cc1c[nH]c2ccccc12)C(=O)N[C@H](Cc1c[nH]cn1)C(=O)N[C@H](CO)C(=O)N[C@H](Cc1c[nH]c2ccccc12)C(=O)NCCCCC(=O)N[C@H](C)C(=O)N[C@H](CCC(N)=O)C(=O)N[C@H](CCCCN)C(=O)N[C@H](C)C(=O)N[C@H](CCCNC(=N)N)C(=O)N[C@H](CCCCN)C(N)=O` [Peptide 516, ri-amKRAKQAUWSHWSAAtp] ([Mpa][dA][dA][dS][dW][dH][dS][dW][Ava][dA][dQ][dK][dA][dR][dK]-NH2)?
**A.** IC50 [2]: 1000 nM; IC50 (bovine endothelial cells): 10000 nM; IC50 [3]: 1 nM

**Q.** With `C[C@@H](NC(=O)CCS)C(=O)N[C@H](C)C(=O)N[C@H](Cc1c[nH]c2ccccc12)C(=O)N[C@H](Cc1c[nH]cn1)C(=O)N[C@H](CO)C(=O)N[C@H](Cc1c[nH]c2ccccc12)C(=O)NCC(=O)N[C@H](C)C(=O)N[C@H](CCC(N)=O)C(=O)N[C@H](CCCCN)C(=O)N[C@H](C)C(=O)N[C@H](CCCNC(=N)N)C(=O)N[C@H](CCCCN)C(N)=O` [Peptide 517, ri-amKRAKQAGWSHWAAtp] ([Mpa][dA][dA][dW][dH][dS][dW]G[dA][dQ][dK][dA][dR][dK]-NH2) as the molecule, how does the IC50 [2] read?
**A.** 3000 nM

**Q.** And the IC50 (bovine endothelial cells)?
**A.** 3000 nM

**Q.** And the IC50 [3]?
**A.** 1 nM

**Q.** `N=C(N)NCCC[C@@H](NC(=O)[C@@H](Cc1ccccc1)NC(=O)[C@@H](CCCCN)NC(=O)[C@@H](CCC(N)=O)NC(=O)[C@@H](CC(=O)O)NC(=O)CNC(=O)CNC(=O)[C@@H](Cc1c[nH]c2ccccc12)NC(=O)[C@@H](CO)NC(=O)[C@@H](Cc1c[nH]cn1)NC(=O)[C@@H](Cc1c[nH]c2ccccc12)NC(=O)[C@@H](CO)NC(=O)[C@H]1CCCN1C(=O)[C@@H](Cc1c[nH]c2ccccc12)NC(=O)[C@@H](CO)NC(=O)[C@@H](CO)NC(=O)CCS)C(=O)N[C@H](CCCCN)C(N)=O` [Peptide 521, ri-amKRFKQDGGWSHWSPWSStp] ([Mpa][dS][dS][dW][dP][dS][dW][dH][dS][dW]GG[dD][dQ][dK][dF][dR][dK]-NH2) was tested. Which IC50 [2] did it give?
**A.** 1500 nM

**Q.** What about the IC50 (bovine endothelial cells) of the same molecule?
**A.** 40000 nM

**Q.** And the IC50 [3]?
**A.** 160 nM

**Q.** For `C[C@@H](NC(=O)CCS)C(=O)N[C@H](C)C(=O)N[C@H](Cc1c[nH]c2ccccc12)C(=O)N[C@H](Cc1c[nH]cn1)C(=O)N[C@H](CO)C(=O)N[C@H](Cc1c[nH]c2ccccc12)C(=O)N[C@H](C)C(=O)N[C@H](CCC(N)=O)C(=O)N[C@H](CCCCN)C(=O)N[C@H](C)C(=O)N[C@H](CCCNC(=N)N)C(=O)N[C@H](CCCCN)C(N)=O` [Peptide 526, ri-amKRAKQAWSHWAAtp] ([Mpa][dA][dA][dW][dH][dS][dW][dA][dQ][dK][dA][dR][dK]-NH2), which IC50 [2] is on record?
**A.** 430 nM

**Q.** What about the “inhibition of thrombospondin binding to heparin, in words” value ([3]; free peptide) of the same molecule?
**A.** decreased activity two fold

**Q.** What about the IC50 [3] of the same molecule?
**A.** 70 nM
